From PubChem BioAssay AID504845 (National Center for Advancing Translational Sciences (NCATS), 2011)
Hit rate of the full screen: of about 390,000 compounds, about 150 (0.038%) were called active. The shares of active, inactive and inconclusive entries below differ from those in the screen. The call rests on the fitted dose curve; in most records, active means well fitted inhibition curve with a large enough effect; inconclusive means small, poorly fitted or top-dose-only effect; inactive means no such curve, though single readings can be large or run the other way. Where the call is inconclusive, the potency comes from a doubtful curve fit.

biological target: Regulator of G-protein signaling 4 (Homo sapiens) (UniProt P49798); test: Inhibitors of Regulator of G Protein Signaling (RGS) 4: qHTS; settings: Transcreener GDP fluorescence polarization, RGS4-accelerated GTP hydrolysis; series mostly up to 114 µM; further: nearly all actives have a fitted effect of over 75% in size
Summary of the method: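 MLSMR compounds (23 nl, pin-transferred) preincubated 10 min at room temperature with a 500nM (2x) first reagent, then RGS4 at 900nM (2x) plus Transcreener GDP mix added; fluorescence polarization (620/688 nm) read before and after 90 min at 30 °C.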
On the % scale 0 is the no-effect control and ±100 the full control effect; potency means the concentration at half of the fitted maximal effect; tags describe the fitted curve by direction and shape.

UniProt P49798, sequence (P49798 whole entry, looked up): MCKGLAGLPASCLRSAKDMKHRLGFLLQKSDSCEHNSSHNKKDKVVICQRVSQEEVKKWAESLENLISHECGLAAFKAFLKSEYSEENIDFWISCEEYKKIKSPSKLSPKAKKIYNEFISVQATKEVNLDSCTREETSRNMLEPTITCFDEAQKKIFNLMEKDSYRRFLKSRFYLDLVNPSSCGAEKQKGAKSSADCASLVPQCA

Compound | Potency | activity change, negative = inhibition
COc1ccc(C=NNc2ccc(S(=O)(=O)Nc3ccccc3C(=O)O)cc2[N+](=O)[O-])c(OC)c1 | inconclusive: 79.4 µM [inhibitor, single point] | –
C=CCNC(=O)/C(C#N)=C/c1c(N2CCN(c3ccc(OC)cc3)CC2)nc2c(C)cccn2c1=O | inconclusive: 44.7 µM [inhibitor, partial curve, poor fit] | –
COc1cc(/C=C(/C#N)C(=O)NCc2ccccc2)cc(OC)c1OC | inactive | –
O=C(/C=C/c1ccccc1)NC(=S)NNC(=O)c1ccco1 | inconclusive: 50.1 µM [inhibitor, partial curve, poor fit] | –
O=C(O)CN1C(=O)/C(=C\c2ccccc2OCc2ccc(Cl)cc2)SC1=S | inconclusive: 79.4 µM [inhibitor, partial curve, poor fit] | –
CSc1ccccc1-c1nnc(-c2ccc(Cl)c(Cl)c2)o1 | – | inactive: -9.7% [at 11.4 µM]
COc1ccc(C)cc1NC(=O)C1C2C=CC(C2)C1C(=O)O (stereo not given) | inactive | –
Cc1cc(Sc2nc(N)ncc2[N+](=O)[O-])ncn1 | inactive | –
OCCN1CCN(C(=S)Nc2cccc(C(F)(F)F)c2)CC1 | inactive | –
Cc1nn(C)c(=S)n1-c1ccc(Cl)cc1 | inactive | –
S=c1[nH]nc(-c2ccco2)n1/N=C/c1ccc(Br)s1 | inconclusive: 56.2 µM [inhibitor, partial curve, poor fit] | –
O=C(C1CC1)N1CCN(c2nc3ccccc3s2)CC1 | inactive | –
O=C(Cn1cncc1-c1ccc([N+](=O)[O-])cc1)Nc1cccc2ccccc12 | inconclusive: 56.2 µM [inhibitor, partial curve, poor fit] | –
NNC(=O)CN1CCCc2ccccc21 | inconclusive: 79.4 µM [inhibitor, partial curve, poor fit] | –
O=C(CNC(=O)c1ccc(Cl)cc1)OC1CCOC1=O (stereo not given) | inconclusive: 56.2 µM [inhibitor, partial curve, poor fit] | –
CCOc1cc2[nH]c(=O)n(CCCN3CCCC3=O)c(=O)c2cc1OCC | inactive | –
Cc1ccc(S(=O)(=O)c2nc(-c3ccco3)oc2SCC(=O)c2ccc(Cl)cc2)cc1 | inconclusive: 89.1 µM [inhibitor, partial curve, poor fit] | –
CCOC(=O)c1c(-c2ccc(OC)cc2)csc1/N=C/C1C(=O)CCCC1=O | inactive | –
Nc1nnc(SC2CC(=O)N(c3ccccc3)C2=O)s1 (stereo not given) | inconclusive: 89.1 µM [inhibitor, single point] | –
Cc1c(O)ccc2c(CN(C)Cc3ccccc3)cc(=O)oc12 | inactive | –
COc1ccc(/C=N/OCC(=O)NC(c2ccccc2)c2ccccc2)c(OC)c1 | inactive | –
CCOc1cc(CN2CCN(c3cccc(C(F)(F)F)c3)CC2)ccc1O | inactive | –
CCOC(=O)c1c(NC(=O)c2ccccc2C)sc2c1CCCC2 | inconclusive: 31.6 µM [inhibitor, full curve, poor fit] | –

Compound | Potency | activity change, negative = inhibition
COc1ccccc1-n1c(-c2ccccc2)c[nH]c1=S | inconclusive: 100 µM [inhibitor, partial curve, poor fit] | –
COc1ccc(C(=O)CSc2nnc(-c3ccco3)c(-c3ccco3)n2)cc1 | – | inactive: -47.3% [at 11.4 µM]
O=C(COc1ccc([N+](=O)[O-])cc1)NCc1ccncc1 | inconclusive: 89.1 µM [inhibitor, single point] | –
CCOC(=O)c1c(C)[nH]c(C)c1S(=O)(=O)N1CCCC(C(=O)Nc2ccc(OC)c(OC)c2)C1 (stereo not given) | inactive | –
O=c1cc2nc(-c3ccccc3F)nc(SCc3ccc(Br)cc3)n2[nH]1 | inconclusive: 89.1 µM [inhibitor, single point] | –
C[C@]12C=CC(=O)C=C1CCC1C3CC[C@](O)(C(=O)CO)[C@@]3(C)CC3OC312 (stereo not given in full) | inconclusive: 70.8 µM [inhibitor, partial curve, poor fit] | –
O=C(Nc1cc(-c2ccc(F)c(F)c2)no1)c1ccccc1F | inactive | –
O=C(c1cccc(NS(=O)(=O)c2cccc(C(F)(F)F)c2)c1)N1CCOCC1 | inconclusive: 89.1 µM [inhibitor, single point] | –
O=C1C=CC(=O)C(C2=C3C(=O)N(CCc4ccccc4)CC(=O)N3CCC2)=C1 | inconclusive: 17.8 µM [inhibitor, full curve, poor fit] | –
O=c1ccc2ccc(O)c(O)c2o1 | inconclusive: 18.9 µM [inhibitor, partial curve] | –
Cc1ccc2cc3c(nc2c1)N(Cc1ccco1)CC3 | inconclusive: 89.1 µM [inhibitor, single point] | –
Cc1ccc(CNC(=O)COC(=O)c2cncc(Br)c2)cc1 | inconclusive: 89.1 µM [inhibitor, single point] | –
O=C1Cc2c([nH]c3ccc([N+](=O)[O-])cc23)-c2ccccc2N1 | inconclusive: 50.1 µM [inhibitor, partial curve, poor fit] | –
Cc1c(Cc2ccc3c(c2)OCO3)sc(NC(=O)c2cccc3ccccc23)c1C(N)=O | inconclusive: 50.1 µM [inhibitor, partial curve, poor fit] | –
CCCCCCOc1cccc(N)c1 | inconclusive: 100 µM [inhibitor, single point] | –
CCOC(=O)N/N=C1\CCc2ccccc21 | inactive | –
Nc1nc(SCc2ccccc2Cl)[nH]c(=O)c1-c1ccccc1 | inactive | –
CC1=NN(c2ccc(S(=O)(=O)O)cc2Cl)C(=O)C1 | inconclusive: 44.7 µM [inhibitor, partial curve, poor fit] | –
Cc1c(N=Cc2cc3c(cc2[N+](=O)[O-])OCO3)cccc1[N+](=O)[O-] | inconclusive: 31.6 µM [inhibitor, full curve, poor fit] | –
O=S(=O)(c1cccc2c(I)cccc12)N1CCCNCC1 | inconclusive: 0.597 µM [inhibitor, full curve, poor fit] | –
Cc1ccc(C(=O)NCC(=O)OCc2c(F)cccc2Cl)cc1 | inactive | –
CCOc1ccc(-c2nnc(-c3ccccc3)n2-c2ccccc2)cc1 | inconclusive: 50.1 µM [inhibitor, partial curve, poor fit] | –
